# From PubChem BioAssay AID1956 (SRMLSC, 2009)
# The other results are listed elsewhere or left out. Further columns of the screen follow, without active or inactive calls.
# Assay: enhancers of HSV replication in host cells, fold increase, host cell viability (AID 1956); note: tested in PC3 cells
# Settings: HSV replication augmentation in cells; fold increase: measured here: primary screen fold increase 10 uM, at 10 µM, stronger effect = higher value; viability: measured here: host cell viability series, at 25 µM, stronger effect = lower value
SMILES,fold increase,viability [%]
COCCCNC(=O)/C(C#N)=c1\s/c(=C\c2ccccc2OC(F)F)c(=O)n1CCCOC,1.66,90.6
CC1=[N+](C)c2c(ccc3cccnc23)C1(C)C,1.35,62.9
CCN(CC)c1ccc2cc(-c3nc4ccccc4n3C)c(=O)oc2c1,1.49,38
N/C(=N\OC(=O)Cc1ccccc1)c1cccnc1,1.53,100
CN1Cc2sc(N)c(C#N)c2CC1(C)C,1.68,95.1
Cc1ccc(C2(c3noc(CN(C)Cc4cnn(C)c4)n3)CCCC2)cc1,1.71,95.7
CC(=O)c1cc(O)c2ccccc2c1O,1.54,–
CN1/C(=C\C=N\NC(=O)c2cccnc2)C(C)(C)c2ccccc21,1.4,86.2
COc1ccccc1N(CC(=O)N/N=C/c1ccccc1C(=O)O)S(C)(=O)=O,1.41,96.7
O=C1c2cccc3c(N4CCCCC4)ccc(c23)C(=O)N1c1ccc(O)cc1,9.55,–
CCN(c1ccccc1)c1cc(C)nc2ncnn12,1.39,97.4
Cc1nn2c(c1-c1ccccc1)N=C(c1ccco1)CC2c1ccccc1 (stereo not drawn),1.32,97.5
COCCN(CCOC)C(=O)c1cc2c(=O)n3ccccc3nc2s1,1.33,97.5
COCCCNC(=O)c1ccc(CS(=O)(=O)c2ccc(Br)cc2)o1,1.32,96.2
CN1/C(=C\C=C2/SC(=S)NC2=O)C(C)(C)c2ccccc21,8.96,36.6
COc1ccc2nc(N3C(=O)/C(=C/c4ccccc4)NC3=S)sc2c1,1.65,–
CCOC(=O)CN1C=C(c2ccc3ccccc3n2)C(C[N+](=O)[O-])c2ccccc21 (stereo not drawn),3.94,92.7
CCOC(=O)CC1C(=O)NCCN1c1nc2c(C)cccn2c(=O)c1/C=C1\SC(=S)N(CC(C)C)C1=O (stereo not drawn),8.04,–
CCOC(=O)C1C(=O)C=C(/C=C/c2ccc(N(C)C)cc2)CC1c1ccccc1 (stereo not drawn),10.2,–
CCOc1cc(/C=C2\SC(=S)N(C(C(=O)O)c3ccccc3)C2=O)ccc1O (stereo not drawn),4.6,–
Oc1ccc(C=Nc2ccc3ncccc3c2)c(O)c1,1.7,100

SMILES,fold increase,viability [%]
N#CC1(C#N)C2=C(CCCC2)NC(c2ccccc2)C1(C#N)C#N (stereo not drawn),1.46,89
O=C(O)C(=O)/C(=C\c1ccc([N+](=O)[O-])cc1)c1ccc2ccccc2n1,1.33,97.8
CN(C)c1ccc(/C=C/c2nc3ccccc3s2)cc1,1.35,63.6
COc1cc(/C=C(\C#N)c2nc(-c3cc4ccccc4oc3=O)cs2)ccc1O,4.01,50.4
Cc1nc2ccccc2n1C1CC(=O)N(N(C)C)C1=O (stereo not drawn),1.43,99.9
CCCN1C(=O)/C(=C/c2c(NCCCOCC)nc3c(C)cccn3c2=O)SC1=S,1.91,–
COc1ccccc1N1C(=O)C2C(C(=O)c3ccccc3)=NN(c3ccccc3)C2C1=O (stereo not drawn),1.69,97.2
N#CC1=C(N)N2C(=C(C#N)C1c1ccc(Br)cc1)Nc1ccccc12 (stereo not drawn),1.63,27.5
CCCCN(C(=O)/C=C/c1ccco1)c1c(N)n(Cc2ccccc2)c(=O)[nH]c1=O,1.58,95.8
CN1C=CC2=C(C#N)C(N)C(C#N)(C#N)[C@H](c3ccccc3)[C@H]2C1 (stereo partly drawn),1.4,93.6
Oc1sc(C=Nc2ccccc2)c2ccccc12,1.38,81.8
O=C1/C(=C\c2ccco2)NC(=S)N1c1ccccc1,1.5,96.6
CCNc1c2c3c(cccc3n(C)c1=O)C(=O)c1ccccc1-2,18.5,76.2
O=C(N/N=C/c1cc(Cl)cc([N+](=O)[O-])c1O)c1ccccc1NS(=O)(=O)c1cccs1,1.38,94
Cc1cc(C)n(CCN(C)C(=O)CCc2nnc(-c3ccc4c(c3)OCO4)o2)n1,1.34,94.2
CCN(CC)c1ccc(C(=O)OCc2cc(=O)oc3cc(O)ccc23)cc1,1.17,–
N#C/C(=C\c1ccc(OC(=O)c2cccs2)cc1)c1nc2ccccc2[nH]1,1.4,94
O=C1c2ccccc2NC(c2ccc(Cl)cc2Cl)N1O (stereo not drawn),1.19,–
COC(=O)c1cc2n3ccccc3c(C)c(-c3ccccc3)c-2c1C(=O)OC,1.1,97.4
CCN(CC)CC(=O)Nc1cc(N(C)C)nc2ccccc12,1.34,98.1
CC(=O)N/N=C/c1cc(C(C)C)cc(/C=N/NC(C)=O)c1O,6.33,103

SMILES,fold increase,viability [%]
CC(C)N1CCc2c(sc(NC(=S)NC(=O)c3ccccc3)c2C#N)C1,2.33,95.5
CN(C)c1ccc(/C=C/c2cc[n+](C)cc2)cc1,2.3,17.1
Cc1ccc(OCC(=O)N/N=C\c2ccc(-c3cccc(C(=O)O)c3)o2)c(C)c1,1.63,94.3
O=C1CN(c2ccccc2F)C(=O)CN1c1ccccc1F,1.34,102
Cn1c(=O)c(NC2CCCCC2)c2c3c(cccc31)C(=O)c1ccccc1-2,8.65,92.8
CC(=O)Cc1cc(O)c2ccccc2c1OC(=O)c1ccc(Br)cc1,1.96,90.5
CCC(OC(=O)CC1Sc2ccccc2NC1=O)C(=O)NCC1CCCO1 (stereo not drawn),1.32,105
COc1cc(SC)ccc1C(=O)Nc1ccc(S(=O)(=O)N2CCCC2)cc1,1.08,–
CCOC(=O)C1=C(O)c2ccccc2C(=O)/C1=C\c1ccc(CC)cc1,1.54,–
CN(C)c1ccc(/C=C2\SC(=O)N(CC(O)Cn3c4ccccc4c4ccccc43)C2=O)cc1 (stereo not drawn),1.62,–
C/C(=N\NC(=O)c1c(Cl)c(C)nn1C)c1cccc(NC(=O)COc2ccccc2)c1,1.42,–
CCOC(=O)C1C(=O)CC(C)(O)C(C(=O)OCC)C1c1cccs1 (stereo not drawn),1.35,97.7
COc1ccccc1N1CCN(C(=O)c2ccc3c(Cl)c4c(nc3c2)CCCC4)CC1,1.32,–
CCOC(=O)COc1ccc(S(=O)(=O)Nc2ccc(C)cc2)cc1,1.36,53.6
O=C(O)c1cc(Cl)c(Cl)cc1C(=O)Nc1cccc2ncccc12,1.51,93.2
O=C/C(=C\Nc1ccccn1)c1nc2cc(Cl)ccc2o1,1.34,95.7
Brc1ccc(-c2cn3nc4c(nc3n2)CCCC4)cc1,1.4,93.5
N#Cc1c(Cn2cncn2)nc(=O)n(-c2ccccc2)c1N,1.48,104
COc1ccc(C(=O)N/N=C/c2sc3ccccc3c2O)cc1,1.37,8.64
